This is one part of the list.
B1: chr16:88863332:88863755:-|three_prime_utr|ENSG00000205022|control|control|control (ssRNA)
RNA: GGGAGUUCUACAGUCCGACGAUCCAGAGGAGAGGGGUGUCCAGAGCAGCCACUGGCCCCCUCUUGGCGGGGGGAUGGCCCAGUAGGGCCUUGUAUGGUGGUCCAGACCCAAGGCCACAGCCACGAGUCACAGCCACGGCCCGGCAACAGAGGAUUGAGCAUCA
B2: chr20:50583650:50583751:+|3pUTR|ENSG00000196396|msi1|FALSE|unique (ssRNA)
RNA: GGGAGUUCUACAGUCCGACGAUCUUCCUAAGCCUGUUGCUGAAGUCAUUGUCGCUCAGCAAUAGGGUGCAGUUUUCCAGGAAUAGGCAUUUGCCUAAUUCCUGGCAUGACACUCUAGUGACUUCCUGGUGAGGCCCAGCCUGUCAACAGAGGAUUGAGCAUCA
B3: chr2:15946816:15946917:+|3pUTR|ENSG00000134323|unk|total|mutant (ssRNA)
RNA: GGGAGUUCUACAGUCCGACGAUCUAUAUGCCUUUUUCCCCGCCUGUUUCUUCCUGUUAAUGUAUUUGUUCAUGUUUGGUGCACCGAACUGGGUAAAUGCAAAGUUCUGUGUUUAAUUUCUUCAAAAUGUAUAUAUUCCGUGCUCAACAGAGGAUUGAGCAUCA
B4: ENSG00000197555:stop:overlap|stop_codon|ENSG00000197555|stop_codon|NA|stop_codon (ssRNA)
RNA: GGGAGUUCUACAGUCCGACGAUCACGCCUCGGACAAGCUGAAGAAGUUCACAGAAUGGGUCUUCAACACCAUAGACAUGAGCUAGGGAAGGCUGAGGAGGACAGGAGAAGGGCCCAGACACUCCCUCCAGUGAGUGUCCUGCACAACAGAGGAUUGAGCAUCA
B5: chr4:183512276:183512377:+|3pUTR|ENSG00000168556|unk|total|mutant (ssRNA)
RNA: GGGAGUUCUACAGUCCGACGAUCCUGCUUGUUUUGGGAAAAAAAAAUGCUUUUUUUCUCUUCCCGCUCUCCUGUGUGACUUUCCGGCAUGUCAUUUCACCUUGUCUGGGUGUCAGGUCAUUCACCUGUAAAAUGAGUUGGCUUCAACAGAGGAUUGAGCAUCA
B6: chr12:131960804:131960905:+|CDS|ENSG00000183495|unk|FALSE|bound_elsewhere (ssRNA)
RNA: GGGAGUUCUACAGUCCGACGAUCCCCUCAGCAAGCCCGUCGGCACCCCAGUCUCCCAGUUAUCAAAUACAGCAGCUGAUGAAUAGGAGCCCUGCAACCGGGCAGAACGUGAACAUCACCCUGCAGAGCGUGGGCCCUGUCGUCCAACAGAGGAUUGAGCAUCA
B7: ENSG00000111530:stop:overlap|stop_codon|ENSG00000111530|stop_codon|NA|stop_codon (ssRNA)
RNA: GGGAGUUCUACAGUCCGACGAUCUCUUUGAAAGUAUCCAGAAAGAUUCAUCAUCUACUAACUUGGAAUCAAUGGACACUAGUUAGAUGUUUGUUCACCAUGGGGACCAUUACAUAUGACCAUACAAUGCACUGAAUUGACAGGCAACAGAGGAUUGAGCAUCA
B8: chr3:57561443:57561544:+|3pUTR|ENSG00000174840|unk|FALSE|unique (ssRNA)
RNA: GGGAGUUCUACAGUCCGACGAUCGAAAUUUAAAUAUGAAGCCAAACUUUUUAAAAUUAGAAACUACAAAUGGUUAUACUGAUUAGUGUCUAGCCUAGAGUGGUAACCAUGCUUUACUAAUUCAGUUAUGAAAUACAUUAUUUACAACAGAGGAUUGAGCAUCA
B9: ENSG00000198589:be:win_8701|3pUTR|ENSG00000198589|bound_else_gene|NA|bound_elsewhere_windowed (ssRNA)
RNA: GGGAGUUCUACAGUCCGACGAUCUGUAGUCUUUGCUUGACUUUUUUGGGGGGGAUUAGCAAAGCAGAAAACUGGCUGCUGGGUUCUGUAGUUUUAAAAAAUCUAUAUUUUUAGUCAUAAUGAGAAGUCUAUUUUCACCAAUUACAACAGAGGAUUGAGCAUCA
B10: chr11:2928445:2928542:-|3pUTR|ENSG00000181649|msi1_unk|FALSE|overlapping (ssRNA)
RNA: GGGAGUUCUACAGUCCGACGAUCAUUGGACUAUCUAAUAUCUAUGUAUUUAUUUCGCUGGUUCUUUGUAGUCACAUAUUUUAUAGUCUUAAUAUCUUGUUUUUGCAUCACUGUGCCCAUUGCAAAUAAAUCACUUGGCCAGUUCAACAGAGGAUUGAGCAUCA
B11: chr10:71816509:71816622:-|3pUTR|ENSG00000197746|msi1_unk|total|mutant (ssRNA)
RNA: GGGAGUUCUACAGUCCGACGAUCUGCCUACAUGUCCCUGGCUGUUGAGGCGCUGCUUCAGCCUGCACCCCUCCCUUGUCUCACCGAUGCUCCUUUUGACCUUUUCAAAUAAAUAUGGAUGGCGAGCUCCCCGGCCUCUGGCUUCAACAGAGGAUUGAGCAUCA
B12: chr17:18209558:18209659:+|3pUTR|ENSG00000091542|msi1|FALSE|unique (ssRNA)
RNA: GGGAGUUCUACAGUCCGACGAUCGGUAGCUUCUAUCCACUCAGAUCCUGGAAGGCAGCAAGGUUUUGUGGAUCUAGAUUCAUUAGGAAUGUCUUCUUGUCAGCCAGGCCAGGACCCGGGCUUGCCAAGAGCAGAGGCCCUCCCCAACAGAGGAUUGAGCAUCA
B13: chr15:41696124:41696239:+|CDS|ENSG00000174197|unk|total|mutant (ssRNA)
RNA: GGGAGUUCUACAGUCCGACGAUCUGCCGCCUCACCGUCCGACCAGAACGGAAGCUUCAAUGUUGUUAUUAAAGAGGAACCUCCCGAUGAUUAUGACUACGAACUUGGUGAGUGCCCAGAAGGGGUCACUGUGAAACAGGAAGACAACAGAGGAUUGAGCAUCA
B14: chr5:171410733:171410822:+|3pUTR|ENSG00000181163|msi1_unk|FALSE|overlapping (ssRNA)
RNA: GGGAGUUCUACAGUCCGACGAUCGUUUUUAAAGAUGGAACUCCACCCUUUGCUUGGUUUUAAGUAUGUAUGGAAUGUUAUGAUAGGACAUAGUAGUAGCGGUGGUCAGACAUGGAAAUGGUGGGGAGACAAAAAUAUACAUGUCAACAGAGGAUUGAGCAUCA
B15: ENSG00000257103:stop:overlap|stop_codon|ENSG00000257103|stop_codon|NA|stop_codon (ssRNA)
RNA: GGGAGUUCUACAGUCCGACGAUCGUCGUGGGGGCCGGGAGUUUGCGGAUUUUGAAUAUAGGAAAGACAACAAAGUUGCUGCAUAGUCUACAAACAAGUCUCUGAAAAUAGGUGAAUUUCUAGCUCUUCAUGGUCCUGAACAUUCAACAGAGGAUUGAGCAUCA
B16: chr1:113797602:113797710:-|CDS|ENSG00000081019|unk|FALSE|bound_elsewhere (ssRNA)
RNA: GGGAGUUCUACAGUCCGACGAUCUUUAUGACUCACCAGGAACAUUCUAUUCGUAGAAAUUUCUUAAAAACAGGUACUAAAUUUAGCAACUUUAUUCAUGAGGAACACCAGUCCAAUGGUGGUGCUCUUGUCCUUCAUGCUUACCAACAGAGGAUUGAGCAUCA
B17: chr2:189033597:189033698:-|3pUTR|ENSG00000204262|msi1|total|mutant (ssRNA)
RNA: GGGAGUUCUACAGUCCGACGAUCAAGAGUGGGGUAUACCGAGCCACAACACAUGUUUAUUUUGCUUGGCUGCAGUUGAAAAACCGAAAUCCGUGCCCUUUUGUGACCUCUCAUUCCAAGAUUGUCAAUUAAAAAUGAGUUUAACAACAGAGGAUUGAGCAUCA
B18: chr11:43342853:43342954:+|3pUTR|ENSG00000166181|msi1|FALSE|unique (ssRNA)
RNA: GGGAGUUCUACAGUCCGACGAUCCUAGUUCUGCUGAUAAAGAUCAUCAGUUUUGAAAGGUUACUGAUUUUCCUCUUCCCUCUUAGUUUUUUACCCAAUAUAUGGAGAAGAGUAAUGGUCAAUCUUAACAUUUUGUUUUAAUUGCAACAGAGGAUUGAGCAUCA
B19: chr21:46004801:46004902:+|3pUTR|ENSG00000142156|msi1|total|mutant (ssRNA)
RNA: GGGAGUUCUACAGUCCGACGAUCAGACUGGGGCCUGGACUGGACAUGAGAGCCCCUUGGUGCCACAGAGGGCUGUGUCUUACCCGAAACAACGCAAACCUCUCCUUCCUCAGAACCGUGAUGUGUUCGACGUUUUAUCAAAGGCAACAGAGGAUUGAGCAUCA
B20: chr1:23559171:23559278:-|CDS|ENSG00000117318|unk|total|mutant (ssRNA)
RNA: GGGAGUUCUACAGUCCGACGAUCAACCACUGCUACUCCCGCCUGCGGGAACUGGUACCCGGAGUCCCGAGAGGCACUCAGCUCCGCCAGGUGGAAAUCCUACAGCGCGUCAUCGACUACAUUCUCGACCUGCAGGCCGUCCUGCAACAGAGGAUUGAGCAUCA
B21: chr2:37644049:37644150:-|3pUTR|ENSG00000163171|msi1|total|mutant (ssRNA)
RNA: GGGAGUUCUACAGUCCGACGAUCUCCGGACAACUAACCAAGCCGACGAAACAAGUUCCCCCCGGCAGGGGUGUCCAAUAUUUCCGCUUCCCUGGACCGCAUUGGAAGAAUUUUCUUGGGCCACAUGUAAAACACACUAACACUCAACAGAGGAUUGAGCAUCA
B22: ENSG00000119396:stop:overlap|stop_codon|ENSG00000119396|stop_codon|NA|stop_codon (ssRNA)
RNA: GGGAGUUCUACAGUCCGACGAUCCCCCGCAGGGAGGCCGGCUAACCAGUGAACCCCAACCCCAGAGAGAAGGCUGUGGCUGCUAGUGACCUCUUUGCUGUGGCCCCUCAUUUGACCUUUCACCUCUGUCUGUUGGAAGCAGUACAACAGAGGAUUGAGCAUCA

Target: MSI1 full-length (mouse, UniProt Q61474 1-362)
Sequence of UniProt Q61474 (Q61474 whole entry): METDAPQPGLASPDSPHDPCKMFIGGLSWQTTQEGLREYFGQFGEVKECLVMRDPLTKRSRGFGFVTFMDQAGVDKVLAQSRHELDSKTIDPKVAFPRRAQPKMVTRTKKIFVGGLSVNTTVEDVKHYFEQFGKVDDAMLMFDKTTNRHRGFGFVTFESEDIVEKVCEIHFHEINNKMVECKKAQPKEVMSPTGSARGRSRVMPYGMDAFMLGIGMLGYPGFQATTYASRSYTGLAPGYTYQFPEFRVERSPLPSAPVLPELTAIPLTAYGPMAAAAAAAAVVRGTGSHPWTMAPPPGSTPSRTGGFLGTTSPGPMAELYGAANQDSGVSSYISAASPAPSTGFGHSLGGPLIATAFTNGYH
Experiment: nsRBNS (natural sequence RNA bind-n-seq); RBNS binding buffer (assumed for nsRBNS): 25 mM Tris pH 7.5, 150 mM KCl, 3 mM MgCl2, 0.01% Triton X-100, 500 ug/ml BSA, 20 U/ml SUPERase-In, 4 C; UNK is unkempt and MSI1 is Musashi-1; names of the RNAs are library labels; protein concentration not given here; high values mean tight binding

Row | Binder | binding signal [enrichment R]
1 | B1 | 0.416
2 | B2 | 0.237
3 | B3 | 0.895
4 | B4 | 0.335
5 | B5 | 0.259
6 | B6 | 0.593
7 | B7 | 0.506
8 | B8 | 12
9 | B9 | 12.4
10 | B10 | 12
11 | B11 | 0.627
12 | B12 | 1.93
13 | B13 | 0.363
14 | B14 | 4.73
15 | B15 | 0.245
16 | B16 | 0.991
17 | B17 | 0.285
18 | B18 | 4.11
19 | B19 | 0.524
20 | B20 | 0.491
21 | B21 | 0.397
22 | B22 | 0.669

From article PMC12136788
